Source: PMC12136788
The list shows a part of the results.

B1: chr14:77132432:77132533:-|3pUTR|ENSG00000177108|unk|FALSE|unique (ssRNA)
RNA: GGGAGUUCUACAGUCCGACGAUCUGUGAUUGCUGGACCCAGAGGCAAGAUCUGCAGAGAUGCCUGUGAGAUAUUUGCUUUCCUAGAGGGGAGUGUGGGCAUGGGAGGGGUCUGAAAAUCAGGACCCAACCCAGCCACUGAAGACAACAGAGGAUUGAGCAUCA
B2: chr3:45835589:45835784:-|CDS|ENSG00000163818|control|control|control (ssRNA)
RNA: GGGAGUUCUACAGUCCGACGAUCGACACCUUCACCAUAGAUGAAGUCUCUGAAGUCCUCAAUGGAUUACAAGCUGUGGUUCAUAGUGAGGUGGAAUCUGAGCUCAUCAACACUGCCUAUACCAAUGUGUUACUUCUGCGACAGCAACAGAGGAUUGAGCAUCA
B3: chr4:168927217:168927233:+|3pUTR|ENSG00000129116|msi1_unk|total|mutant (ssRNA)
RNA: GGGAGUUCUACAGUCCGACGAUCAACCACCCAAAUGACCAAGGCAUAUACCGUAUUUGGAGGAAUCAGGGGUUUGGAAGGAGCCGGGAGGAGAAUGAAGGAAAAUGCAACCAGCAUGAUUACCGUGUGUUCAUUCCGAUAAAACAACAGAGGAUUGAGCAUCA
B4: chr18:47206168:47206892:-|three_prime_utr|ENSG00000215474|control|control|control (ssRNA)
RNA: GGGAGUUCUACAGUCCGACGAUCCAGGUUCAGGAGAACCUAAGGACAAGUGACCUCAAAACAGCAUGGACAACCAUGUAAAAUAGACUGUAGCAGCCAUUCAUUAGUGGGGGGAGGGGGGAGCCAACCAGAGCAGUCAAUGCUCAACAGAGGAUUGAGCAUCA
B5: chr6:125889563:125889680:+|CDS|ENSG00000111912|unk|total|mutant (ssRNA)
RNA: GGGAGUUCUACAGUCCGACGAUCCAAGCAGUCUGGUUCGCCAGAAAGCCGAGCCGAAAACACACUGAACAUACAUGAAGAUUCCGAUAAAGUUAAACUCAUUGAAUAUUACCUGACUAAGAACAAAGAAGGGCCACAGGUAUCCAACAGAGGAUUGAGCAUCA
B6: chr20:4700004:4700108:+|3pUTR|ENSG00000171867|msi1|total|mutant (ssRNA)
RNA: GGGAGUUCUACAGUCCGACGAUCUCACCAUCUUUCUAAUCUUUUUCCAGCUUGAGGGAGGCGGUAUCCACCUGCAGCCCUUUCCGUGGUGGUGUCUCACUCUUUCUUCUCUCUUUGUCCCGGACCGGCUAAUCAAUACCCUUGCAACAGAGGAUUGAGCAUCA
B7: chr17:39792672:39792933:-|CDS|ENSG00000161405|control|control|control (ssRNA)
RNA: GGGAGUUCUACAGUCCGACGAUCAGAGAAUAUAAUGAAUAUGAAAACAUUAAGUUGGAGAGACAUGUUGUCUCAUUCGAUAGUAGCAGGCCAACCAGUGGAAAGAUGAACUGCGAUGUGUGUGGAUUAUCCUGCAUCAGCUUCCAACAGAGGAUUGAGCAUCA
B8: chrX:13708825:13708941:+|CDS|ENSG00000123595|unk|FALSE|unique (ssRNA)
RNA: GGGAGUUCUACAGUCCGACGAUCGAGUUCACUUAUGAACAGAUAUGUAACUAAUAAGUUUGAUACCCAGCUCUUCCAUACAAUAGGUGUGGAAUUUUUAAAUAAAGAUUUGGAAGUGGAUGGACAUUUUGUUACCAUGCAGAUCAACAGAGGAUUGAGCAUCA
B9: chr4:108667705:108667793:+|3pUTR|ENSG00000198856|msi1_unk|FALSE|overlapping (ssRNA)
RNA: GGGAGUUCUACAGUCCGACGAUCUCUGGACAGUUGAUCAGCUUUACCUAUGGUGCUUUGCCUUUAACUAGAGUGUGUGAUGGUAGAUUAUUUCAGAUAUGUAUGUAAAACUGUUUCCUGAACAAUAAGAUGUAUGAACGGAGCCAACAGAGGAUUGAGCAUCA
B10: chr5:113014749:113014850:+|3pUTR|ENSG00000172795|msi1|FALSE|unique (ssRNA)
RNA: GGGAGUUCUACAGUCCGACGAUCUAAAAAUCCUUUUUUACAGUGGUAUCCACAAAAUACUUCUCUGCUUAUAAAUGUUAUUGUAGAAAUCUUUAUUCUGUGUAGGUAGCCUAUUUAAUUGGGUUCCACUGAACCUCAUGGGACCAACAGAGGAUUGAGCAUCA
B11: chr1:66374421:66374522:+|3pUTR|ENSG00000184588|msi1|FALSE|bound_elsewhere (ssRNA)
RNA: GGGAGUUCUACAGUCCGACGAUCACUGCAUUGUUUCAGGUGGACAUUUUAUCAUUUUCAAAUGUUUCUCACAAUGUAUGUUAUAGUAUUAUUAUUAUAUAUUGUGUUCAAAUGCAUUCUAAAGAGACUUUUAUAUGAGGUGAACAACAGAGGAUUGAGCAUCA
B12: chr7:135927258:135927359:-|3pUTR|ENSG00000105887|msi1_unk|FALSE|overlapping (ssRNA)
RNA: GGGAGUUCUACAGUCCGACGAUCCAGCUUCAGACUGUUAUCUAUAGGCUUAUCGUUCAAAUACAGCACUUGAAUAUCCCAAGUAGUUCUUCUACGCAUAGCUCACCUUUCUAAACCCAGUUAAGCAUGGAAGAGAGGUAGUAGCAACAGAGGAUUGAGCAUCA
B13: chr18:35263486:35263657:-|CDS|ENSG00000186814|control|control|control (ssRNA)
RNA: GGGAGUUCUACAGUCCGACGAUCGGAAAUGACAUCCACAGGAGCACUGAAGUCUCUGUCUCUGAAUAGCCCGGUGCAGCCCUUAGAGAACCAGUGCAAGACUGAGACUCAGGAGUCCCAGGCUUUCCAGGAGAGAGGUGAGAACAACAGAGGAUUGAGCAUCA
B14: chr3:100713726:100713879:+|CDS|ENSG00000114354|unk|total|mutant (ssRNA)
RNA: GGGAGUUCUACAGUCCGACGAUCACUUGGGGAGGAUAUUCGGCGAAUUCCUAUUCAUAAUGAAGAUAUUACUUAUGAUGAAUCCGUGCUAAUGAUGCAACGAGUUUUCAGAGGAAAACUUCUGAGUAAUGAUGAAGUAACAAUCAACAGAGGAUUGAGCAUCA
B15: chr1:32195301:32195402:+|3pUTR|ENSG00000084652|msi1|FALSE|unique (ssRNA)
RNA: GGGAGUUCUACAGUCCGACGAUCUGACCUGGCUGGCAUCUGGCACUUGCAAUUUUGGAUUUUGUGGGUCAGUUUUACGUACAUAGGGCAUUUUGCAAGGCCUUGCAAAUGCAUUUAUACCUGUAAGUGUACAGUGGGCUUGCACAACAGAGGAUUGAGCAUCA
B16: ENSG00000107863:be:win_4851|CDS|ENSG00000107863|bound_else_gene|NA|bound_elsewhere_windowed (ssRNA)
RNA: GGGAGUUCUACAGUCCGACGAUCCGAGGCAGAUGACGAGAGAAGCGAACUCAUCAGUGAAGGGCGGCCUGUGGAAACCGACAGCGAGAGCGAGUUUCCCGUGUUCCCCACAGCCUUGACUUCAGAGAGGCUUUUCCGAGGAAACAACAGAGGAUUGAGCAUCA
B17: chr10:32033860:32033975:-|CDS|ENSG00000170759|unk|FALSE|unique (ssRNA)
RNA: GGGAGUUCUACAGUCCGACGAUCCACAGUGGAUAAAGAUAUUACUCUUACCAAUGAUAAACCAGCAACCGCAAUUGGAGUUAUAGGAAAUUUUACUGAUGCUGAAAGAAGAAAGUGUGAAGAAGAAAUUGCUAAAUUAUACAACAACAGAGGAUUGAGCAUCA
B18: chr19:13095865:13096029:+|3pUTR|ENSG00000008441|msi1|FALSE|unique (ssRNA)
RNA: GGGAGUUCUACAGUCCGACGAUCCCGCCCCCCACGUGGCCACUUUUCUCUGGAUUUUAGCUGUAAUGUCUUUACUCUUUAUUUAGGGGUGGGGCAUUCAUUGUUUGGGUCUUUUGCUGUUGGAAUGGGAACUCCUCCUCCAUUCAACAGAGGAUUGAGCAUCA
B19: chr1:6592219:6592320:-|3pUTR|ENSG00000162413|unk|FALSE|unique (ssRNA)
RNA: GGGAGUUCUACAGUCCGACGAUCCCCAAAGUAGCCUUGGCUUGAGUUUUUGUCCUUGCCUCCUUUUUAGAGAAGAGGGCAUUUAGACUGCAUUUUCCUGGUUAAAGAAGGUUAAAGCAAAUGUUUAUUGCCUUUUCUAGUGAACAACAGAGGAUUGAGCAUCA
B20: chr3:69085097:69085224:+|CDS|ENSG00000144746|unk|FALSE|bound_elsewhere (ssRNA)
RNA: GGGAGUUCUACAGUCCGACGAUCGGGUUCCGAUCGCUUUGCCCGGCCGGACUUCAGGGACAUUUCCAAAUGGAACAACCGCGUAGUGAGCAACCUGCUCUAUUACCAGACCAACUACCUGGUGGUGGCUGCCAUGAUGAUUUCCAACAGAGGAUUGAGCAUCA
B21: chr19:39539560:39539696:-|CDS|ENSG00000176396|unk|FALSE|unique (ssRNA)
RNA: GGGAGUUCUACAGUCCGACGAUCCGGGAACGGAGGCCUGGCUGCGUUGCCCUAUCUCCGUCUCCGCCACCCACUUAGCGUUUUAGGCAUCAAUUACCAGCAGUUUCUCCGCCACUAUCUGGAAAAUUACCCGAUUGCUCCCGGCAACAGAGGAUUGAGCAUCA
B22: ENSG00000136451:be:win_4151|3pUTR|ENSG00000136451|bound_else_gene|NA|bound_elsewhere_windowed (ssRNA)
RNA: GGGAGUUCUACAGUCCGACGAUCUGUUGAAGGCACGACAGCCACUGCUCUACGAAAAGGCAGAGUACGUUUUUCCCUUCUGGUUGUAACCUGGUUGAGAGCUUCCCCUUUAUCAGAUUGGCAGCUAAACAGUUGUAUUAGAUACAACAGAGGAUUGAGCAUCA

target: MSI1 full-length (mouse, UniProt Q61474 1-362); assay: nsRBNS (natural sequence RNA bind-n-seq); RBNS binding buffer (assumed for nsRBNS): 25 mM Tris pH 7.5, 150 mM KCl, 3 mM MgCl2, 0.01% Triton X-100, 500 ug/ml BSA, 20 U/ml SUPERase-In, 4 C; UNK is unkempt and MSI1 is Musashi-1; names of the RNAs are library labels; protein concentration not given here; high values mean tight binding
Chain of UniProt Q61474 (Q61474 whole entry): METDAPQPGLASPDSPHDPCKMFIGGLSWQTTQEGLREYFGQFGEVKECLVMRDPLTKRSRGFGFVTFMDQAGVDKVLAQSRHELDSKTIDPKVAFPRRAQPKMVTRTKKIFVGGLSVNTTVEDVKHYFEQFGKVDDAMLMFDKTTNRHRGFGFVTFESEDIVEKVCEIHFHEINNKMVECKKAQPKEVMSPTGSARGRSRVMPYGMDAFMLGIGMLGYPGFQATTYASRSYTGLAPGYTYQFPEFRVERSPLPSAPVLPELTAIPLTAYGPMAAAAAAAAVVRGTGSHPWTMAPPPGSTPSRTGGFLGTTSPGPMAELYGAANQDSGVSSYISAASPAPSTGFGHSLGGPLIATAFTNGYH

Going from B1 to B2, the binding signal falls from 0.392 enrichment R to 0.332 enrichment R.

Going from B3 to B4, the binding signal rises from 0.421 enrichment R to 0.913 enrichment R.

First: B5
Second: B6
The binding signal of the first is lower: 0.504 enrichment R for the first, 0.763 enrichment R for the second.

Compared with B7, B8 is higher in binding signal: 1.51 enrichment R for the first, 12.3 enrichment R for the second.

First: B9
Second: B10
The binding signal of the first is higher: 1.65 enrichment R for the first, 1.47 enrichment R for the second.

First: B11
Second: B12
The binding signal of the first is lower: 1.05 enrichment R for the first, 2.79 enrichment R for the second.

First: B13
Second: B14
The binding signal of the first is higher: 0.496 enrichment R for the first, 0.283 enrichment R for the second.

Going from B15 to B16, the binding signal rises from 0.371 enrichment R to 0.409 enrichment R.

Going from B17 to B18, the binding signal falls from 1.59 enrichment R to 0.732 enrichment R.

First: B19
Second: B20
The binding signal of the first is lower: 0.308 enrichment R for the first, 0.369 enrichment R for the second.

Going from B21 to B22, the binding signal falls from 0.934 enrichment R to 0.778 enrichment R.
